The chains are these.
B1: TEV protease; numbered along this chain (parent)
chain: MGESLFKGPRDYNPISSSICHLTNESDGHTTSLYGIGFGPFIITNKHLFRRNNGTLVVQSLHGVFKVKDTTTLQQHLVDGRDMIIIRMPKDFPPFPQKLKFREPQREERICLVTTNFQTKSMSSMVSDTSCTFPSGDGIFWKHWIQTKDGQCGSPLVSTRDGFIVGIHSASNFTNTNNYFTSVPKNFMELLTNQEAQQWVSGWRLNADSVLWGGHKVFMVKPEEPFQPVKEATQL

The other results are listed elsewhere or left out. The full chains were built here from the parent and the listed change. Values near 0.05 are background.

Variants of B1 are the subject of the test. As to the kind of experiment: raw area under fraction-flipped curve 0-4 h after induction (AUC4h, not background-subtracted), DNA-recorder readout of cleavage of the substrate (dimensionless); higher = more cleavage of the substrate by the protease variant. The following applies: temperature: 34 °C; time window: 0-4 h after rhamnose induction. The procedure: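 In vivo DNA recorder in E. coli TOP10(DE3) ΔrhaA at 34 °C. Each TEVp single-site mutant (parent TEVp 0) is paired with a single-site variant of the 7-mer TEVs (canonical ENLYFQ|S). The substrate sits between flexible linkers in a Bxb1-sfGFP-TEVs-SsrA fusion, so cleavage stabilises Bxb1 and speeds flipping of a recombination array, read by NGS. The value is the raw area under the fraction-flipped curve over 0-4 h after rhamnose induction (AUC4h), with ≥20 reads per time point. It is not background-subtracted; inactive controls average about 0.047.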

Here are results for ten variants from the supplement of paper PMC12217912.
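Note: Bxb1 expression induced with 0.2% (w/v) L-rhamnose at OD600 near 0.5, cultures sampled hourly, flipped fraction per protease–substrate barcode pair counted by paired-end Illumina sequencing.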

For MGESLFKGPRDYNPISSSICHLTNESDGHTTSLYGIGFGPFIITNKHLFRRNNGTLVVQSLHGVFKVKDTTTLQQHLVDGRDMIIIRMPKDFPPFPQKLKFREPQREERICLVTTNFQTKSMSSMVSDTSCTFPSGDGIFWKHWIQTKDGQCGSPLVSTRDGFIVGIHSASNFTNTNNYFTSVPKNFMELLDNQEAQQWVSGWRLNADSVLWGGHKVFMVKPEEPFQPVKEATQL [T192D], the “area with substrate CNLYFQS” value was found to be 0.0678, the “area with substrate FNLYFQS” value came out at 0.0587, the “area with substrate INLYFQS” value came out at 0.073 and the “area with substrate KNLYFQS” value came to 0.0629. Moreover, the “area with substrate LNLYFQS” value is 0.0647, the “area with substrate MNLYFQS” value was found to be 0.0703, the “area with substrate NNLYFQS” value was 0.0385 and the “area with substrate PNLYFQS” value was determined as 0.0794. In addition, the “area with substrate SNLYFQS” value was 0.0823, the “area with substrate WNLYFQS” value amounted to 0.0655 and the “area with substrate YNLYFQS” value came to 0.0573.

Consider MGESLFKGPRDYNPISSSICHLTNESDGHTTSLYGIGFGPFIITNKHLFRRNNGTLVVQSLHGVFKVKDTTTLQQHLVDGRDMIIIRMPKDFPPFPQKLKFREPQREERICLVTTNFQTKSMSSMVSDTSCTFPSGDGIFWKHWIQTKDGQCGSPLVSTRDGFIVGIHSASNFTNTNNYFTSVPKNFMELLPNQEAQQWVSGWRLNADSVLWGGHKVFMVKPEEPFQPVKEATQL [T192P], for which the “area with substrate CNLYFQS” value was 0.0559, the “area with substrate FNLYFQS” value amounted to 0.061, the “area with substrate GNLYFQS” value came out at 0.0652 and the “area with substrate HNLYFQS” value was determined as 0.0695. The “area with substrate INLYFQS” value was 0.0442, the “area with substrate KNLYFQS” value stood at 0.0599, the “area with substrate LNLYFQS” value turned out to be 0.0664 and the “area with substrate MNLYFQS” value stood at 0.0577. In addition, the “area with substrate NNLYFQS” value worked out at 0.0431, the “area with substrate PNLYFQS” value was 0.0539, the “area with substrate QNLYFQS” value was determined as 0.0532 and the “area with substrate SNLYFQS” value turned out to be 0.072. Further, the “area with substrate VNLYFQS” value came to 0.0546, the “area with substrate WNLYFQS” value was 0.0556 and the “area with substrate YNLYFQS” value is 0.0582.

Turning to MGESLFKGPRDYNPISSSICHLTNESDGHTTSLYGIGFGPFIITNKHLFRRNNGTLVVQSLHGVFKVKDTTTLQQHLVDGRDMIIIRMPKDFPPFPQKLKFREPQREERICLVTTNFQTKSMSSMVSDTSCTFPSGDGIFWKHWIQTKDGQCGSPLVSTRDGFIVGIHSASNFTNTNNYFTSVPKNFMELLTNQDAQQWVSGWRLNADSVLWGGHKVFMVKPEEPFQPVKEATQL [E195D], the “area with substrate CNLYFQS” value is 0.0639, the “area with substrate FNLYFQS” value came out at 0.0477, the “area with substrate HNLYFQS” value is 0.0651 and the “area with substrate KNLYFQS” value came to 0.0603. Besides, the “area with substrate LNLYFQS” value turned out to be 0.0725, the “area with substrate PNLYFQS” value turned out to be 0.0459, the “area with substrate QNLYFQS” value turned out to be 0.07 and the “area with substrate SNLYFQS” value came to 0.0622. Besides, the “area with substrate TNLYFQS” value was found to be 0.0631 and the “area with substrate WNLYFQS” value was found to be 0.0665.

Consider MGESLFKGPRDYNPISSSICHLTNESDGHTTSLYGIGFGPFIITNKHLFRRNNGTLVVQSLHGVFKVKDTTTLQQHLVDGRDMIIIRMPKDFPPFPQKLKFREPQREERICLVTTNFQTKSMSSMVSDTSCTFPSGDGIFWKHWIQTKDGQCGSPLVSTRDGFIVGIHSASNFTNTNNYFTSVPKNFMELLTNQCAQQWVSGWRLNADSVLWGGHKVFMVKPEEPFQPVKEATQL [E195C], for which the “area with substrate CNLYFQS” value was 0.048, the “area with substrate FNLYFQS” value turned out to be 0.0667, the “area with substrate HNLYFQS” value was 0.0722 and the “area with substrate INLYFQS” value came to 0.0632. In addition, the “area with substrate LNLYFQS” value was 0.0661, the “area with substrate MNLYFQS” value was found to be 0.0665, the “area with substrate NNLYFQS” value amounted to 0.055 and the “area with substrate RNLYFQS” value is 0.058. For the same variant, the “area with substrate SNLYFQS” value stood at 0.0601, the “area with substrate TNLYFQS” value was 0.0526, the “area with substrate VNLYFQS” value amounted to 0.0625 and the “area with substrate WNLYFQS” value worked out at 0.0553. Also, the “area with substrate YNLYFQS” value was 0.055.

With MGESLFKGPRDYNPISSSICHLTNESDGHTTSLYGIGFGPFIITNKHLFRRNNGTLVVQSLHGVFKVKDTTTLQQHLVDGRDMIIIRMPKDFPPFPQKLKFREPQREERICLVTTNFQTKSMSSMVSDTSCTFPSGDGIFWKHWIQTKDGQCGSPLVSTRDGFIVGIHSASNFTNTNNYFTSVPKNFMELLTNQEACQWVSGWRLNADSVLWGGHKVFMVKPEEPFQPVKEATQL [Q197C], the “area with substrate CNLYFQS” value was 0.0709, the “area with substrate FNLYFQS” value came to 0.0525, the “area with substrate INLYFQS” value came out at 0.0357 and the “area with substrate LNLYFQS” value was 0.0697. In addition, the “area with substrate MNLYFQS” value was 0.0686, the “area with substrate RNLYFQS” value is 0.0681, the “area with substrate SNLYFQS” value worked out at 0.0603 and the “area with substrate TNLYFQS” value was 0.0692. Also, the “area with substrate WNLYFQS” value turned out to be 0.0667.

With MGESLFKGPRDYNPISSSICHLTNESDGHTTSLYGIGFGPFIITNKHLFRRNNGTLVVQSLHGVFKVKDTTTLQQHLVDGRDMIIIRMPKDFPPFPQKLKFREPQREERICLVTTNFQTKSMSSMVSDTSCTFPSGDGIFWKHWIQTKDGQCGSPLVSTRDGFIVGIHSASNFTNTNNYFTSVPKNFMELLTNQENQQWVSGWRLNADSVLWGGHKVFMVKPEEPFQPVKEATQL [A196N], the “area with substrate CNLYFQS” value is 0.0919, the “area with substrate FNLYFQS” value was 0.0617, the “area with substrate GNLYFQS” value is 0.0721 and the “area with substrate HNLYFQS” value was found to be 0.0757. For the same variant, the “area with substrate INLYFQS” value was 0.0598, the “area with substrate KNLYFQS” value turned out to be 0.056, the “area with substrate PNLYFQS” value was found to be 0.076 and the “area with substrate RNLYFQS” value came to 0.0665. The “area with substrate TNLYFQS” value worked out at 0.0694, the “area with substrate VNLYFQS” value was 0.101, the “area with substrate WNLYFQS” value amounted to 0.0474 and the “area with substrate YNLYFQS” value amounted to 0.0613.

Consider MGESLFKGPRDYNPISSSICHLTNESDGHTTSLYGIGFGPFIITNKHLFRRNNGTLVVQSLHGVFKVKDTTTLQQHLVDGRDMIIIRMPKDFPPFPQKLKFREPQREERICLVTTNFQTKSMSSMVSDTSCTFPSGDGIFWKHWIQTKDGQCGSPLVSTRDGFIVGIHSASNFTNTNNYFTSVPKNFMELLTNQEAQVWVSGWRLNADSVLWGGHKVFMVKPEEPFQPVKEATQL [Q198V], for which the “area with substrate CNLYFQS” value worked out at 0.0582, the “area with substrate KNLYFQS” value stood at 0.076, the “area with substrate LNLYFQS” value is 0.0557 and the “area with substrate MNLYFQS” value stood at 0.0736. In addition, the “area with substrate NNLYFQS” value is 0.0763, the “area with substrate PNLYFQS” value stood at 0.0788, the “area with substrate RNLYFQS” value amounted to 0.0718 and the “area with substrate SNLYFQS” value was 0.054. Further, the “area with substrate TNLYFQS” value came to 0.0557, the “area with substrate WNLYFQS” value turned out to be 0.0579 and the “area with substrate YNLYFQS” value came to 0.0635.

In the case of MGESLFKGPRDYNPISSSICHLTNESDGHTTSLYGIGFGPFIITNKHLFRRNNGTLVVQSLHGVFKVKDTTTLQQHLVDGRDMIIIRMPKDFPPFPQKLKFREPQREERICLVTTNFQTKSMSSMVSDTSCTFPSGDGIFWKHWIQTKDGQCGSPLVSTRDGFIVGIHSASNFTNTNNYFTSVPKNFMELLTNQEAQYWVSGWRLNADSVLWGGHKVFMVKPEEPFQPVKEATQL [Q198Y], the “area with substrate CNLYFQS” value was determined as 0.0693, the “area with substrate HNLYFQS” value was found to be 0.0629, the “area with substrate INLYFQS” value turned out to be 0.0697 and the “area with substrate LNLYFQS” value is 0.0645. For the same variant, the “area with substrate MNLYFQS” value was found to be 0.0576, the “area with substrate PNLYFQS” value is 0.061, the “area with substrate SNLYFQS” value was 0.0643 and the “area with substrate TNLYFQS” value turned out to be 0.0653. Besides, the “area with substrate VNLYFQS” value is 0.0677, the “area with substrate WNLYFQS” value was 0.0541 and the “area with substrate YNLYFQS” value came out at 0.0569.

Consider MGESLFKGPRDYNPISSSICHLTNESDGHTTSLYGIGFGPFIITNKHLFRRNNGTLVVQSLHGVFKVKDTTTLQQHLVDGRDMIIIRMPKDFPPFPQKLKFREPQREERICLVTTNFQTKSMSSMVSDTSCTFPSGDGIFWKHWIQTKDGQCGSPLVSTRDGFIVGIHSASNFTNTNNYFTSVPKNFMELLTNSEAQQWVSGWRLNADSVLWGGHKVFMVKPEEPFQPVKEATQL [Q194S], for which the “area with substrate CNLYFQS” value turned out to be 0.0898, the “area with substrate FNLYFQS” value is 0.0633, the “area with substrate HNLYFQS” value was found to be 0.0644 and the “area with substrate INLYFQS” value was 0.062. For the same variant, the “area with substrate KNLYFQS” value came to 0.075, the “area with substrate LNLYFQS” value turned out to be 0.0607, the “area with substrate NNLYFQS” value turned out to be 0.0793 and the “area with substrate PNLYFQS” value was 0.0846. Besides, the “area with substrate QNLYFQS” value came to 0.0758, the “area with substrate RNLYFQS” value is 0.0671, the “area with substrate SNLYFQS” value was 0.0661 and the “area with substrate TNLYFQS” value was found to be 0.0722. The “area with substrate WNLYFQS” value amounted to 0.0549 and the “area with substrate YNLYFQS” value stood at 0.0618.

As to MGESLFKGPRDYNPISSSICHLTNESDGHTTSLYGIGFGPFIITNKHLFRRNNGTLVVQSLHGVFKVKDTTTLQQHLVDGRDMIIIRMPKDFPPFPQKLKFREPQREERICLVTTNFQTKSMSSMVSDTSCTFPSGDGIFWKHWIQTKDGQCGSPLVSTRDGFIVGIHSASNFTNTNNYFTSVPKNFMELLTPQEAQQWVSGWRLNADSVLWGGHKVFMVKPEEPFQPVKEATQL [N193P], the “area with substrate CNLYFQS” value is 0.0647, the “area with substrate GNLYFQS” value stood at 0.0621, the “area with substrate KNLYFQS” value was 0.0468 and the “area with substrate MNLYFQS” value was determined as 0.0385. For the same variant, the “area with substrate NNLYFQS” value came to 0.0693, the “area with substrate PNLYFQS” value is 0.0649, the “area with substrate SNLYFQS” value stood at 0.0675 and the “area with substrate TNLYFQS” value is 0.0611. Besides, the “area with substrate WNLYFQS” value was determined as 0.0539 and the “area with substrate YNLYFQS” value was found to be 0.0618.
